Laboratory results reported in US20050221433A1 (Regeneron, published 2005).

Experiments:
recombinant human IL-18 [1] = molecular target: T1, recombinant human IL-18 (human, UniProt Q14116 37-193); test: BiaCore 2000; polypeptide captured on chip by anti-human Fc antibodies, human IL-18 injected; kinetic analysis
T1 construct: Analyte in the BiaCore assay and stimulus (4 pM) in the NFkB-luciferase bioassay; also called hIL-18
T1 sequence (looked up): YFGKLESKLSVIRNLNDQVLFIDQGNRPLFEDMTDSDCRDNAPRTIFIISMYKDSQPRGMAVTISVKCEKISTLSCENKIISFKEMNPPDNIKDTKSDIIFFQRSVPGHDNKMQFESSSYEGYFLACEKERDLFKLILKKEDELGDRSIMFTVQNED
Procedure: hIL-18 Binding Affinity. The affinity of the hIL-18-specific polypeptides for human IL-18, produced by transiently expression in CHOK1 cells, was measured using a BiaCore 2000, as described in WO 00/75319, herein specifically incorporated by reference in its entirety. hIL-18-specific polypeptides were captured onto the chip surface using anti-human Fc antibodies (when the polypeptide comprises an Fc component) or directly coupled to the chip. Varying concentrations of human IL-18 were injected over the surface and the time course of association and dissociation was monitored. Kinetic analysis using BIA evaluation software was performed to obtain the KD.

recombinant human IL-18 [2] = molecular target: T1, recombinant human IL-18; test: cell-based or functional assay

B1: hIL18BPa (58-192) (C129S).hFc (Fc fusion)
chain: AAKQCPALEVTWPEVEVPLNGTLSLSCVACSRFPNFSILYWLGNGSFIEHLPGRLWEGSTSRERGSTGTQLSKALVLEQLTPALHSTNFSCVLVDPEQVVQRHVVLAQLWAGLRATLPPTQEALPSSHSSPQQQG[letters of human IgG1 Fc not shown]
Recombinant human IL-18 [1]
  Kd: 5.8 pM
Recombinant human IL-18 [2]
  IC50 (M), HEK293/NFkB-luciferase bioassay: 3.7e-11 M

B2: hIL18BPa (58-192) (C129H).hFc (Fc fusion)
chain: AAKQCPALEVTWPEVEVPLNGTLSLSCVACSRFPNFSILYWLGNGSFIEHLPGRLWEGSTSRERGSTGTQLHKALVLEQLTPALHSTNFSCVLVDPEQVVQRHVVLAQLWAGLRATLPPTQEALPSSHSSPQQQG[letters of human IgG1 Fc not shown]
Recombinant human IL-18 [1]
  Kd: 10 pM
Recombinant human IL-18 [2]
  IC50 (M), HEK293/NFkB-luciferase bioassay: 8e-11 M

B3: hIL18BPa (58-192) (C129K).hFc (Fc fusion)
chain: AAKQCPALEVTWPEVEVPLNGTLSLSCVACSRFPNFSILYWLGNGSFIEHLPGRLWEGSTSRERGSTGTQLKKALVLEQLTPALHSTNFSCVLVDPEQVVQRHVVLAQLWAGLRATLPPTQEALPSSHSSPQQQG[letters of human IgG1 Fc not shown]
Recombinant human IL-18 [1]
  Kd: 10 pM
Recombinant human IL-18 [2]
  IC50 (M), HEK293/NFkB-luciferase bioassay: 1e-10 M

B4: hIL18Rb.hIL18BPa (58-192) (C129S).TG.hFc (Fc fusion)
chain: FNISGCSTKKLLWTYSTRSEEEFVLFCDLPEPQKSHFSHRNRLSPKQVPEHLPFMGSNDLSDVQWYQQPSNGDPLEDIRKSYPHIIQDKCTLHFLTPGVNNSGSYICRPKMIKSPYDVAACVKMILEVKPQTNASCEYSASHKQDLLLGSTGSISCPSLSCQSDAQSPAVTWYKNGKLLSVERSNRIVVDEVYDYHQGTYVCDYTQSDTVSSWTVRAVVQVRTIVGDTKLKPDILDPVEDTLEVELGKPLTISCKARFGFERVFNPVIKWYIKDSDLEWEVSVPEAKSIKSTLKDEIIERNIILEKVTQRDLRRKFVCFVQNSIGNTTQSVQLKEKRSGAAKQCPALEVTWPEVEVPLNGTLSLSCVACSRFPNFSILYWLGNGSFIEHLPGRLWEGSTSRERGSTGTQLSKALVLEQLTPALHSTNFSCVLVDPEQVVQRHVVLAQLWAGLRATLPPTQEALPSSHSSPQQQGTG[letters of human IgG1 Fc not shown]
Recombinant human IL-18 [2]
  IC50 (M), HEK293/NFkB-luciferase bioassay: 1.92e-07 M

B5: hIL18BPa (58-192) (C129S) (S184N).TG.hFc (Fc fusion)
chain: AAKQCPALEVTWPEVEVPLNGTLSLSCVACSRFPNFSILYWLGNGSFIEHLPGRLWEGSTSRERGSTGTQLSKALVLEQLTPALHSTNFSCVLVDPEQVVQRHVVLAQLWAGLRATLPPTQEALPSNHSSPQQQGTG[letters of human IgG1 Fc not shown]
Recombinant human IL-18 [2]
  IC50 (M), HEK293/NFkB-luciferase bioassay: 1.48e-11 M

B6: hIL18R.SG.hIL18BPa (1-192).SG.hFc (Fc fusion)
chain: FNISGCSTKKLLWTYSTRSEEEFVLFCDLPEPQKSHFSHRNRLSPKQVPEHLPFMGSNDLSDVQWYQQPSNGDPLEDIRKSYPHIIQDKCTLHFLTPGVNNSGSYICRPKMIKSPYDVAACVKMILEVKPQTNASCEYSASHKQDLLLGSTGSISCPSLSCQSDAQSPAVTWYKNGKLLSVERSNRIVVDEVYDYHQGTYVCDYTQSDTVSSWTVRAVVQVRTIVGDTKLKPDILDPVEDTLEVELGKPLTISCKARFGFERVFNPVIKWYIKDSDLEWEVSVPEAKSIKSTLKDEIIERNIILEKVTQRDLRRKFVCFVQNSIGNTTQSVQLKEKRSGTPVSQTTTAATASVRSTKDPCPSQPPVFPAAKQCPALEVTWPEVEVPLNGTLSLSCVACSRFPNFSILYWLGNGSFIEHLPGRLWEGSTSRERGSTGTQLCKALVLEQLTPALHSTNFSCVLVDPEQVVQRHVVLAQLWAGLRATLPPTQEALPSSHSSPQQQGSG[letters of human IgG1 Fc not shown]
notes: To be rechecked
Recombinant human IL-18 [1]
  Kd: 280 pM
Recombinant human IL-18 [2]
  IC50 (M), HEK293/NFkB-luciferase bioassay: 4.13e-10 M

B7: hIL18BPa (1-192).SG.hFc (Fc fusion)
chain: TPVSQTTTAATASVRSTKDPCPSQPPVFPAAKQCPALEVTWPEVEVPLNGTLSLSCVACSRFPNFSILYWLGNGSFIEHLPGRLWEGSTSRERGSTGTQLCKALVLEQLTPALHSTNFSCVLVDPEQVVQRHVVLAQLWAGLRATLPPTQEALPSSHSSPQQQGSG[letters of human IgG1 Fc not shown]
notes: also called hIL18BPa.hFc
Recombinant human IL-18 [1]
  Kd: 100 pM
Recombinant human IL-18 [2]
  IC50 (M), HEK293/NFkB-luciferase bioassay: 1.16e-10 M

B8: hIL18BPa (1-192).SG.hIL18Rb.SG.hFc (Fc fusion)
chain: TPVSQTTTAATASVRSTKDPCPSQPPVFPAAKQCPALEVTWPEVEVPLNGTLSLSCVACSRFPNFSILYWLGNGSFIEHLPGRLWEGSTSRERGSTGTQLCKALVLEQLTPALHSTNFSCVLVDPEQVVQRHVVLAQLWAGLRATLPPTQEALPSSHSSPQQQGSGFNISGCSTKKLLWTYSTRSEEEFVLFCDLPEPQKSHFSHRNRLSPKQVPEHLPFMGSNDLSDVQWYQQPSNGDPLEDIRKSYPHIIQDKCTLHFLTPGVNNSGSYICRPKMIKSPYDVAACVKMILEVKPQTNASCEYSASHKQDLLLGSTGSISCPSLSCQSDAQSPAVTWYKNGKLLSVERSNRIVVDEVYDYHQGTYVCDYTQSDTVSSWTVRAVVQVRTIVGDTKLKPDILDPVEDTLEVELGKPLTISCKARFGFERVFNPVIKWYIKDSDLEWEVSVPEAKSIKSTLKDEIIERNIILEKVTQRDLRRKFVCFVQNSIGNTTQSVQLKEKRSG[letters of human IgG1 Fc not shown]
notes: To be rechecked
Recombinant human IL-18 [1]
  Kd: 500 pM
Recombinant human IL-18 [2]
  IC50 (M), HEK293/NFkB-luciferase bioassay: 2.5e-10 M

B9: hIL18BPa (58-192).TG.hFc (Fc fusion)
chain: AAKQCPALEVTWPEVEVPLNGTLSLSCVACSRFPNFSILYWLGNGSFIEHLPGRLWEGSTSRERGSTGTQLCKALVLEQLTPALHSTNFSCVLVDPEQVVQRHVVLAQLWAGLRATLPPTQEALPSSHSSPQQQGTG[letters of human IgG1 Fc not shown]
Recombinant human IL-18 [2]
  IC50 (M), HEK293/NFkB-luciferase bioassay: 1.2e-10 M

B10: hIL18BPa (58-192) (C129S).TG.hFc (Fc fusion)
chain: AAKQCPALEVTWPEVEVPLNGTLSLSCVACSRFPNFSILYWLGNGSFIEHLPGRLWEGSTSRERGSTGTQLSKALVLEQLTPALHSTNFSCVLVDPEQVVQRHVVLAQLWAGLRATLPPTQEALPSSHSSPQQQGTG[letters of human IgG1 Fc not shown]
Recombinant human IL-18 [1]
  Kd: 12 pM
Recombinant human IL-18 [2]
  IC50 (M), HEK293/NFkB-luciferase bioassay: 4.75e-11 M

B11: hIL18BPa (58-181) (C129S).TG.hFc (Fc fusion)
chain: AAKQCPALEVTWPEVEVPLNGTLSLSCVACSRFPNFSILYWLGNGSFIEHLPGRLWEGSTSRERGSTGTQLSKALVLEQLTPALHSTNFSCVLVDPEQVVQRHVVLAQLWAGLRATLPPTQEALTG[letters of human IgG1 Fc not shown]
Recombinant human IL-18 [2]
  IC50 (M), HEK293/NFkB-luciferase bioassay: 9e-11 M

B12: hIL18BPa (58-192) (C129S).SG.hFc (Fc fusion)
chain: AAKQCPALEVTWPEVEVPLNGTLSLSCVACSRFPNFSILYWLGNGSFIEHLPGRLWEGSTSRERGSTGTQLSKALVLEQLTPALHSTNFSCVLVDPEQVVQRHVVLAQLWAGLRATLPPTQEALPSSHSSPQQQGSG[letters of human IgG1 Fc not shown]
Recombinant human IL-18 [2]
  IC50 (M), HEK293/NFkB-luciferase bioassay: 9e-11 M
